Measured values: PubChem BioAssay AID1963576 (National Center for Advancing Translational Sciences (NCATS), 2024)
Screen size: about 46,000 compounds; about 60 (0.1%) were called active. Another 3% or so got no clear call; they are omitted. Calls follow the shape of the dose curve; as a rule, active = well fitted inhibition curve with a large enough effect; inconclusive = small, poorly fitted or top-dose-only effect; inactive = no such curve, though single readings can be large or run the other way. The list shows a part of the results.

Experiment: Primary qHTS assay for Inhibitors of ovarian cancer metastasis using an organotypic tumor microenvironment (TME) model. Also: nearly all actives have a fitted effect of over 65% in size.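 As to activity change, negative = inhibition: plate controls were DMSO wells for no effect and tomatine positive control wells for full effect.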
Conditions: SKOV3ip1-GFP adhesion/invasion on 3D omental model, fluorescence; series mostly up to 45.8 µM; activity change, negative = inhibition: at the top concentration
In short: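 Primary human omental fibroblast/mesothelial 3D culture pre-formed 48 h. SKOV3ip1-GFP cells added with compounds (0.36-46 umol/L), incubated 2 h RT/16 h 37 C, fixed; GFP cells quantified at 488/509 nm.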

Activity change, negative = inhibition, inactive:
Cn1cnnc1SCC(=O)Nc1cc(C(=O)O)cc(C(=O)O)c1 -2.13%
COc1ccc(-c2ccc(CNc3ccc4[nH]c(=O)[nH]c4c3)o2)cc1Cl 8.05%
COc1ccc(S(=O)(=O)c2c(Nc3ccc(C)cc3)sc(C(=O)c3ccc(C)cc3)c2N)cc1 -1.93%
Cc1ccc(-n2nc(C)c3c(C)cc(=O)n(CC(=O)Nc4ccc(Br)cc4F)c32)cc1 0.987%
Cc1cc(=O)n2[nH]c(NCc3ccc(F)cc3)nc2n1 -5.59%
COc1ccc(NC(=O)c2sc3nc4c(cc3c2N)CN(C(C)C)CC4)c(OC)c1 -7.9%
COc1cc(-c2noc(CSc3nc(-c4ccccc4)cc(=O)[nH]3)n2)cc(OC)c1OC -7.42%
Cc1cccc(C(=O)NCC(c2ccc3c(c2)OCO3)N2CCN(c3ccccc3F)CC2)c1 (configuration not stated) -13.2%
Cc1ccc(Cl)cc1NC(=O)Nc1c(C)n(C)n(-c2ccccc2)c1=O 0.888%
CCOC(=O)CSc1nc2ccc(NC(=O)c3ccc(F)cc3)cc2s1 -7.28%
CCOc1ccccc1Nc1nc(-c2cccc(Cl)c2)c2c(n1)-c1ccccc1OC2 -7.71%
Cc1ccc(CSCC(=O)NCc2ccc(F)cc2)cc1 -4.77%
CCCn1c(=O)n(-c2cc(Cl)c(OC)cc2OC)c(=O)c2c3c(sc21)CN(C(C)=O)CC3 -9.12%
Cc1cc(C)c(Cn2c(CCNC(=O)c3ccco3)nc3ccccc32)c(C)c1 -19.1%
CC1=C(C(=O)Nc2cccnc2)C(c2cccc(O)c2)n2nc(SCc3ccccc3)nc2N1 (configuration not stated) 9.14%
Cc1ccc(Nc2nnc(-c3ccc(C)c(S(=O)(=O)N4CCN(C)CC4)c3)c3ccccc23)c(C)c1 0.0317%
CCn1cc(CCC(=O)NCc2ccc(F)cc2)c2ccccc21 20.3%
Cc1ccc([C@H]2Nc3ccc(S(=O)(=O)Nc4cccc(Cl)c4C)cc3[C@H]3C=CC[C@H]32)cc1 -6.75%
CCOc1ccc(C(=O)NCCc2csc(-c3ccc(C(F)(F)F)cc3)n2)cc1OCC -27.4%
CCOc1ccccc1CNC(=O)C1CCN(C2=NS(=O)(=O)C(c3ccc(C)c(C)c3)=C2C)CC1 6.4%
COc1ccc(OC)c(NC(=O)Cn2cnc3sc(C)c(S(=O)(=O)N4CCN(c5ccccc5OC)CC4)c3c2=O)c1 0.406%
CCCN(C(=O)c1nn(-c2ccc(OC)c(Cl)c2)c(=O)c2c1c1ccccc1n2C)c1ccccc1F 1.93%
CC(C)c1ccc2oc(-c3cc(NC(=O)c4cccs4)ccc3Cl)nc2c1 16.9%
O=c1c2oc3ccccc3c2n(Cc2cccc(F)c2)c(=O)n1Cc1ccco1 1.04%
COc1cccc(NC(=O)c2sc3nc(C)c(C(=O)Nc4ccc(C)cc4C)c(-c4sccc4C)c3c2N)c1 -7.06%
CS(=O)(=O)CCNCc1ccc(-c2ccc3ncnc(Nc4ccc(OCc5cccc(F)c5)c(Cl)c4)c3c2)o1 -25.3%
COc1ccc(S(=O)(=O)c2c(Nc3ccc(F)cc3)sc(C(=O)c3ccc(C)cc3C)c2N)cc1 1.02%
Cc1ccccc1N1CCN(S(=O)(=O)c2nnc(NC(=O)c3ccccc3)s2)CC1 2.07%
CCOc1ccccc1CNC(=O)c1cc2c(=O)n(Cc3ccccc3)ccc2nc1C 145%
CC(=O)N1CCCc2cc(S(=O)(=O)N3CCCCC3)ccc21 2.91%
CCOc1ccc(NC(=O)CSc2nccn2-c2cccc(C)c2C)cc1 4.3%
COc1ccccc1NC(=O)CCn1cnc2ccccc2c1=O 0.258%
Cc1ccc(Cl)cc1N1CCN(C(=O)C2CCCN(S(=O)(=O)c3ccc(Br)s3)C2)CC1 (configuration not stated) 7.62%
Cc1ccc(OCC(=O)NCC(=O)OCc2cc(=O)n3nc(C)sc3n2)cc1 -15.9%
CCCCn1c2ccc(F)cc2c2nnc(SCCN3CCCCC3)nc21 -4.24%
CC(C)c1ccc(NC(=O)CSC2=Nc3ccccc3C3=NC(CC(=O)NCc4ccc(F)cc4)C(=O)N23)cc1 (configuration not stated) 16.1%
COc1ccc(CNC(=O)c2ccc3c(c2)N(Cc2cccc(Cl)c2)C(=O)c2ccccc2S3)c(OC)c1 -5.92%
Cc1ccc(CNC(=O)c2nc(SCc3ccc(C)cc3)ncc2Cl)cc1 -15.2%
COc1ccc(CCNC(=O)CSc2ncc3c(n2)-c2cc(Cl)ccc2N(Cc2ccccc2)S3(=O)=O)cc1OC -0.82%
CC(C)c1ccc(OC(=O)c2cc(-c3ccc4c(c3)OCCO4)on2)cc1 0.615%
Cc1ccc(-n2c(=O)c3cccnc3n2CC(=O)Nc2cccc(C)c2C)cc1 -1.79%
Cc1cccn2c(Nc3ccccc3)c(-c3ccc(N4CCOCC4)cc3)nc12 -10.8%
COCCCNC(=O)CCn1c(=O)c2ccccc2n(CC(=O)Nc2c(C)cc(C)cc2C)c1=O 44.1%
Cc1nn(-c2ccccc2)c(OC(=O)c2ccccc2F)c1S(=O)(=O)c1ccccc1 -7.38%
COc1cccc2sc(N(Cc3cccnc3)C(=O)COc3ccccc3)nc12 -4.26%
N#Cc1ccccc1NC(=O)c1cc2c(=O)n3ccccc3nc2s1 3.79%
CC1CCN(S(=O)(=O)c2ccc3c(c2)N(CC(=O)NCCCN2CCCCC2C)C(=O)CS3)CC1 (configuration not stated) -2.7%
COc1ccc(CCNC(=O)C2=C(C)C(=O)OC23CCCCC3)c(OC)c1OC -13.2%
CCN(CC)S(=O)(=O)c1ccc2c(c1)nc(CN(C)C(=O)c1cccc(Cl)c1)n2C -6.56%
COc1cc(CN(C(=O)c2ccccc2[N+](=O)[O-])c2ccccn2)cc(OC)c1OC 2.78%
Cc1ccc(C)c(NC(=O)CSc2nc(=O)n(CCN(C)C)c3c2CCC3)c1 -8.66%
Cc1sc2c(c1C)c(=O)n(CCc1ccccc1)c(=O)n2Cc1ccccc1Cl 0.955%
COc1cccc(N2CCN(C(=O)c3cccc(NC(=O)c4nsc5ccccc45)c3)CC2)c1 2.93%
Cc1ccc(S(=O)(=O)c2cn(Cc3ccccc3F)c3cc4c(cc3c2=O)OCO4)cc1 0.317%
Cc1cc(NC(=O)c2ccc3c(c2)N(Cc2cccc(Cl)c2)C(=O)c2ccccc2S3=O)ccc1Br (configuration not stated) 10.9%
CCc1ccccc1NC(=O)Nc1cc(C(=O)NCc2ccc(C(C)C)cc2)ccc1N1CCCC1 -9.16%
CCC1CN(S(=O)(=O)c2cc(-c3cc(C)no3)ccc2OC)c2cc(C)ccc2O1 (configuration not stated) -2.74%
CO[C@@H]1[C@@H](O)[C@H](O)[C@@H](n2c3c(Cl)cccc3c3c4c(c5c6cccc(Cl)c6[nH]c5c32)C(=O)NC4=O)O[C@@H]1CO 2%
CCOc1ccc(CNC(=O)CCc2c(C)nn(-c3ccc(N4CCOCC4)nn3)c2C)cc1 110%
Cc1ccc(S(=O)(=O)N2CCC(c3nnc(-c4cccc(C)c4)o3)CC2)cc1 -6.7%
CCc1nc2nc(C)cc(Nc3cc(Cl)ccc3OC)n2n1 9.49%
CCc1ccc(CNC(=O)c2ccc(NC(=O)N3CCSc4ncccc43)cc2)cc1 -9.71%
COc1ccc(C(=O)NCc2nnc(SCC(=O)Nc3ccc(C)cc3)n2-c2ccccc2)cc1 2.4%
Cc1ccc(SCC(=O)Nc2ccc3oc(-c4ccc(F)cc4)nc3c2)cc1 -2.04%
COc1cccc(CNC(=O)c2ccc3c(Cl)c4c(nc3c2)CCCC4)c1 -6.77%
Cc1ccc(C(C)C)c(OCc2ccc(C(=O)Nc3ccc(S(N)(=O)=O)cc3C)o2)c1 -15.3%
Cc1cccc(N(C)C(=O)CS(=O)(=O)c2cccc3nsnc23)c1 -7.29%
CCOc1ccc(Nc2cc(C)c(C#N)c3nc4ccccc4n23)cc1 2.75%
Cc1ccc(S(=O)(=O)c2nc(-c3ccco3)oc2SCC(=O)c2ccc(Cl)cc2)cc1 9.19%
CCOc1ccc(CCNC(=O)c2ccc(C)c(-n3cnc4cccnc43)c2)cc1 5.08%
CC(C)NC(=O)Cn1c(=O)nc(-c2ccccc2)c2ccccc21 -7.83%
Cc1nc(-n2nc(C)c(CCC(C)C)c2C)sc1C(=O)Nc1cccc(Cl)c1C -15%
Cn1nnnc1SCCCNCc1ccc(-c2cccc(Cl)c2)o1 0.89%

outcome, inactive:
O=C(CCCn1c(=O)c2cccn2c2ccc(F)cc21)NCCc1ccccc1
CCOC(=O)c1cccc(NC(=O)CCc2c(C)nc3cc(-c4ccc(Cl)cc4)nn3c2C)c1
COc1ccc(-c2noc(-c3ccc(NCc4ccco4)c([N+](=O)[O-])c3)n2)cc1
COc1ccc(NC(=O)Cn2cc(S(=O)(=O)c3ccc(C)cc3)c(=O)c3ccccc32)cc1OC
COc1ccc(C(=O)N2CCC(c3nc4ccccc4o3)CC2)cc1
COc1ccc(NC(=O)c2ccc3c(=O)n4nc(Nc5cc(C)ccc5C)sc4nc3c2)cc1
c1ccc(Cc2nnc(SCc3nc(-c4cccs4)no3)n2-c2ccccc2)cc1
COc1ccc(C(=O)Nc2cc(C(C)C)c(O)c(S(=O)(=O)c3ccc(OC)cc3)c2C)cc1
CN(C(=O)c1cc2c(=O)oc3ccccc3c2s1)c1ccc(F)cc1
CCOC(=O)C1CCN(S(=O)(=O)c2cc(-c3onc(C)c3C)ccc2OC)CC1
CCc1ccccc1NC(=O)Cn1c(=O)c2cccn2c2ccc(F)cc21
CCOc1ccc(C(=O)Nc2nnc(SCc3cc(=O)c4cc(C)ccc4[nH]3)s2)cc1
CC1CCCN(Cc2c(O)ccc3c(=O)c(Oc4ccccc4Cl)c(C(F)(F)F)oc23)C1 (configuration not stated)
CCc1ccc(NC(=O)CCS(=O)(=O)c2ccc3c(c2)CCN3C(C)=O)cc1
COc1ccc(OC)c(CNC(=O)C2CCN(S(=O)(=O)c3cn(C)cn3)CC2)c1
O=C(CN1C(=O)COc2ccc(S(=O)(=O)N3CCCC3)cc21)NCCc1ccc(Cl)cc1
Oc1ccccc1-c1nc(/C=C/c2ccccc2)nn1-c1ccccc1
CCOC(=O)c1c(NC(=O)c2ccccc2C)sc2c1CCCC2
O=C(OCc1ccco1)c1ccc2c(c1)N(Cc1ccc([N+](=O)[O-])cc1)C(=O)c1ccccc1S2
